# Measurements published in paper PMC4154625 (Cytoskeleton (Hoboken, N.J.), 2014).
# B1: four-repeat long (4RL) Tau C291I (natural protein)
# chain: not shown
# modifications: Alexa Fluor 488-C5 maleimide on the single remaining cysteine (C322); labeling efficiency 79-85%
# Target: the molecule itself
# Assay: single-molecule TIRF brightness analysis
protein,measurement,value
B1,stoichiometry N,2
